# Laboratory results: paper PMC4336329 (PLoS ONE, 2015)
# In all, about 310,000 compounds went through this assay and about 2,200 (0.71%) showed an effect of 50% or more. Effects have a minus sign here. This is one part of the list.
# Biological target: human ether-à-go-go-related gene (hERG) potassium channel (human, UniProt Q12809)
# Assay: primary screen, population patch clamp on CHO cells stably expressing hERG
# Chain of human ether-à-go-go-related gene (hERG) potassium channel (Q12809 whole entry, looked up): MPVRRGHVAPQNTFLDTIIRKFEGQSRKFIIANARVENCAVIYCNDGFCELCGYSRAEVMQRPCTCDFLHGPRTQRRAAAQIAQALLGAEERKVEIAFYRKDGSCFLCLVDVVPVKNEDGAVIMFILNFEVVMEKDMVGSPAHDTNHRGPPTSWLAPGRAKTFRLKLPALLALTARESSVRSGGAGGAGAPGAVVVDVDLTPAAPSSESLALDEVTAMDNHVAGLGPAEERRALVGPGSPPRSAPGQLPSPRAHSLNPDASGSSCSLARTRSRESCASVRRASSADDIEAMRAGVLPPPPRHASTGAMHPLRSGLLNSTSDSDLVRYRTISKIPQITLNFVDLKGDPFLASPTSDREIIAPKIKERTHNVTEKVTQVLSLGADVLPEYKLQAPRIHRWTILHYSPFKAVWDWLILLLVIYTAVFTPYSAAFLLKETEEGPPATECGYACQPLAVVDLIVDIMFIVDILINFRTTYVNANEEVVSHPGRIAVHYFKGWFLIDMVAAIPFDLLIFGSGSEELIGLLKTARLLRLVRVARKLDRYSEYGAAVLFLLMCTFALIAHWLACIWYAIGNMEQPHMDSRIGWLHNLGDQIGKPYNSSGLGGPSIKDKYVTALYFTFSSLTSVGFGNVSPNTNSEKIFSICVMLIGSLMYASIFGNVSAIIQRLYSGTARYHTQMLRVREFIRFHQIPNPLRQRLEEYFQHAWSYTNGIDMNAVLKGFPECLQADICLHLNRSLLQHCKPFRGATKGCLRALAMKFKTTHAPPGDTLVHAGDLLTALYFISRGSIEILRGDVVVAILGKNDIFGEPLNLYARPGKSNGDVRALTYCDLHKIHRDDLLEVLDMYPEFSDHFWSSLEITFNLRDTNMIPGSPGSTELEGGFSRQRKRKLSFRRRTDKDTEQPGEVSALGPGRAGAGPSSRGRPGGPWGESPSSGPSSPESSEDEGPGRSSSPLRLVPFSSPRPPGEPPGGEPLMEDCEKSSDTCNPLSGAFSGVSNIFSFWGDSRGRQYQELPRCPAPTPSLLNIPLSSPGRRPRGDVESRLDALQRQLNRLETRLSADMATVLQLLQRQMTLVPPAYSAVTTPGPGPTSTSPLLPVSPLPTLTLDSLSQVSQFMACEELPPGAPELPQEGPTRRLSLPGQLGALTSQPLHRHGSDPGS
row,SMILES,"hERG current change (%, negative = inhibition) at 1uM [%]"
1,COc1ccccc1N1CCN(C(=O)c2cc3cc(F)ccc3[nH]2)CC1,15.6
2,Cc1cc(C)n(CCc2nc(-c3ccc(C)o3)cs2)n1,-1.59
3,CSc1nc(C)c(CCOC(=O)c2cccc(Cl)c2)c(=O)[nH]1,5.59
4,COc1ccc(C(=O)Nc2ccc3c(c2)nc(CCNC(=O)c2ccco2)n3C)cc1,5.77
5,CC#CC(=O)N1CCC(CCc2ccccc2)(C(=O)OCC)CC1,-18.4
6,Cc1ccc(S(=O)(=O)N(CC(=O)N2CCc3ccccc3C2)c2ccc(Cl)c(Cl)c2)cc1,-1.2
7,COc1ccc(OC)c(-c2cc(C(=O)Nc3c(C)nn(Cc4ccccc4C)c3C)no2)c1,6.03
8,CN(C)c1ccc(-c2noc(C3CCN(C(=O)Nc4ccc(Cl)cc4)CC3)n2)cc1,11.4
9,O=C(NCCCN1CCCC1=O)c1cc(=O)c2ccccc2o1,8.89
10,O=C(COC(=O)C1CC2CCCC(C1)C2=O)Nc1ccc(Cl)cn1 (stereo not shown),5.22
11,O=C(COC(=O)c1ccccc1C(=O)c1ccccc1)NCCc1ccc(Cl)cc1Cl,13.4
12,COC(=O)CSc1nc2c(c(=O)n(C)c(=O)n2C)n1CCCc1ccccc1,-1.18
13,CC(C)CCNC(=O)c1csc2c1CCCCC2,8.77
14,O=C(CN(C(=O)CNS(=O)(=O)c1ccc(F)cc1)c1ccccc1F)NCc1ccco1,-7.47
15,Cn1c(SCC(=O)N2c3ccccc3Sc3ccccc32)nc2ccccc21,8.03
16,CCc1ccc(NC(=O)COC(=O)CCc2nc3cc(S(=O)(=O)N(CC)CC)ccc3n2C)cc1,4.7
17,COc1ccc(C(=O)Nc2ccc(NC(=O)c3ccco3)c(Cl)c2)cc1OC,7.4
18,c1ccc(N=C(c2cccs2)N2CCOCC2)cc1,13.1
19,COc1ccccc1C(=O)OC(C)CN1CCN(C)CC1.Cl (stereo not shown),10.7
20,NC(=O)c1cc(-c2csc(-c3cccnc3)n2)ccc1O,9.86
21,O=C(NCCN1CCOCC1)Nc1ccc(F)cc1,5.76
22,CC1(C)CCc2cc(-c3ccn(S(=O)(=O)c4ccccc4Cl)n3)ccc2O1,10.4

row,SMILES,"hERG current change (%, negative = inhibition) at 1uM [%]"
1,Cn1ccc(NC(=O)c2ccc(Cl)cc2Cl)n1,7.95
2,CCOc1ccc(C(=O)CCNC(Cc2cnc[nH]2)C(=O)O)cc1 (stereo not shown),7.32
3,CCOC(=O)C1=C(COC(=O)c2ccccc2OC(F)F)NC(=O)NC1C (stereo not shown),12.8
4,CCOC(=O)C(C)Sc1nc2c(c(=O)[nH]c(=O)n2C)n1C/C=C(/C)Cl (stereo not shown),-62.6
5,O=C(COc1ccc(S(=O)(=O)N2CCOCC2)cc1)NCC1CCCO1 (stereo not shown),-1.87
6,Cc1cccc(-n2c(SCC(=O)N(C)C3CCS(=O)(=O)C3)nc3ccccc3c2=O)c1C (stereo not shown),13.9
7,CCOc1ccccc1/C=N/NC(=O)c1cccc(Cl)c1,9.71
8,O=c1[nH]c(=O)n(-c2ccccc2F)c(O)c1C=NCCC1=CCCCC1,18.8
9,COc1ccc(OC)c(C2C(C(=O)Nc3ccc(F)cc3)=C(C)Nc3nc(CCCO)nn32)c1 (stereo not shown),5.26
10,O=C(CCn1c(=S)oc2ccccc21)NC1CCCCC1,12.7
11,Cc1cc(C)c(S(C)(=O)=O)c(S(=O)(=O)c2ccc(Cl)cc2)n1,0.591
12,C=CCN1C(=O)C2(OCCCO2)c2ccccc21,11
13,COc1ccc(CN2CCN(C3CCC3)CC2CCO)cc1C (stereo not shown),13
14,COc1ccccc1NS(=O)(=O)c1cc(NC(=O)C(C)C)ccc1N1CCCCC1,14.8
15,O=C(CNC(=O)c1ccc2c(c1)OCO2)N/N=C(Br)/C=C/c1ccccc1,7.92
16,Cc1cc(C(=O)CSc2ncccn2)c(C)n1-c1cccc(F)c1,-0.353
17,COc1ccc(N2CCN(C(=O)CCc3nnc4ccc(N5CCCC5)nn34)CC2)cc1,8.92
18,COc1ccccc1CC(=O)Nc1ccc2c(C)cc(=O)oc2c1,6.27
19,COc1ccccc1-n1c2nc3ccccc3nc2c2c(=O)n(-c3cc(C)cc(C)c3)cnc21,-5.14
20,COc1ccc(Cl)cc1NC(=O)C/C(C)=N/NC(=O)COc1ccc(C)cc1,-3.16
21,NC(=O)CN1CCN(c2cccc(Cl)c2)CC1,11.3
